# Measurements from PubChem BioAssay AID624418 (National Center for Advancing Translational Sciences (NCATS), 2012).
# Among all 410,000 compounds or so, about 530 (0.13%) were called active. Inconclusive means that the source gave no clear call. Such entries were picked first, then a sample of the others. The call rests on the fitted dose curve; in most records, active means well fitted inhibition curve with a large enough effect; inconclusive means small, poorly fitted or top-dose-only effect, or another doubt; inactive means no such curve, though single readings can be large or run the other way. Potencies beside an inconclusive call are fits to weak or partial responses and may not hold up.
# Experiment: qHTS of GLP-1 Receptor Inverse Agonists: Cytotox Screen
# Conditions: HEK293 cAMP-luciferase reporter cells, luminescence, 24 h; series mostly up to 38.3 µM
# Method in brief: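 Quantitative HTS format, 1536 wells, 200 cells/uL seeded. Compounds: 23 nL, 24 h, 37 °C. Detection: luciferase reagent, luminescence at 12 min RT; decreased signal taken as cytotoxic.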
# Potency means the concentration at half of the fitted maximal effect.
row,SMILES,Potency
1,O=C1N(Cc2cccc(Cl)c2)C[C@@H]2C[C@@H](c3cccn3-c3nccs3)N3CCC[C@@]123,inactive
2,Cc1ccccc1NC(=S)NCCC(c1ccccc1)c1ccccc1,"inconclusive: 22.4 µM [inhibitor, single point]"
3,S=C(Nc1ccc(Cl)cc1)c1nc2ccccc2[nH]1,"inconclusive: 25.1 µM [inhibitor, single point]"
4,Cc1ccc(-n2c(SCC(=O)NC3CCS(=O)(=O)C3)nc3ccccc3c2=O)c(C)c1 (stereo not drawn),"inconclusive: 5.01 µM [inhibitor, partial curve]"
5,O=C(Nc1ccc(Cl)c(S(=O)(=O)N2CCOCC2)c1)c1ccc(OCC2CCCO2)cc1 (stereo not drawn),"inconclusive: 10 µM [inhibitor, single point]"
6,CCOC(=O)C1=C(O)/C(=C/c2ccc(OCC(=O)O)c(OC)c2)SC1=Nc1ccc(OC)cc1,"inconclusive: 28.2 µM [inhibitor, single point]"
7,CCN(CC)c1ccc(C(=O)NNC(=O)c2cccn2C)cc1,inactive
8,COC(=O)c1sc(SC)c(S(=O)(=O)C(C)C)c1N/N=C(\C#N)C(=O)c1ccccc1,"inconclusive: 14.1 µM [inhibitor, single point]"
9,CC(CN1CCCCC1)OC(=O)/C=C/c1ccccc1 (stereo not drawn),inactive
10,CCOC(=O)C1=C(CN2CCN(c3ccccc3F)CC2)NC(=O)NC1c1ccc(OC)cc1 (stereo not drawn),inactive
11,CCN(CC)CCNC(=O)c1ccc(NC(=O)Cc2cccc3ccccc23)cc1,"inconclusive: 12.6 µM [inhibitor, single point]"
12,CCN(CC)S(=O)(=O)c1cc(NC(=O)Cn2ncc(Cl)c(Cl)c2=O)ccc1C,"inconclusive: 28.2 µM [inhibitor, single point]"
13,COc1ccc(NC(=O)CCCn2cnc3ccccc3c2=O)c(OC)c1,inactive
14,Cn1c(-c2ccc(-c3ccccc3)cc2)c[nH]c1=S,"inconclusive: 2.51 µM [inhibitor, full curve, poor fit]"
15,COC(=O)C1CCN(c2ccc(C(N)=O)cc2[N+](=O)[O-])CC1,"inconclusive: 7.94 µM [inhibitor, partial curve, poor fit]"
16,CC1CCCN(CCOc2ccc3ccccc3c2Br)C1 (stereo not drawn),"inconclusive: 11.2 µM [inhibitor, partial curve, poor fit]"
17,COc1ccc(C(C#N)=C2C=CC(=NO)C=C2)cc1,"inconclusive: 7.94 µM [inhibitor, partial curve, poor fit]"
18,COc1ccc(C(=O)N2CCC(c3ccncc3)CC2)cc1OC,inactive
19,O=[N+]([O-])c1ccc(N/N=C/c2c[nH]c3ccccc23)cc1,"inconclusive: 28.2 µM [inhibitor, single point]"
20,COCCn1c(SCC(=O)Nc2sccc2C(N)=O)nc2cc(Cl)ccc2c1=O,"inconclusive: 28.2 µM [inhibitor, single point]"
21,Cc1ccc(S(=O)c2ccc([N+](=O)[O-])c3nonc23)cc1 (stereo not drawn),"inconclusive: 20 µM [inhibitor, single point]"
22,CCOc1ccc(C(=O)Nc2ccccc2C#N)cc1[N+](=O)[O-],"inconclusive: 11.2 µM [inhibitor, single point]"
23,Cc1ccc(C(C)C)c(OCCn2ccnc2C)c1,"inconclusive: 10 µM [inhibitor, single point]"

row,SMILES,Potency
1,CC1C(=O)N(Cc2cn(Cc3ccco3)nn2)CCS(=O)(=O)N1Cc1ccc(-c2ccc(Cl)cc2)cc1 (stereo not drawn),inactive
2,CCOC(=O)c1ccc(NC(=O)c2csc3c2CCCCC3)cc1,"inconclusive: 10 µM [inhibitor, partial curve, poor fit]"
3,Cc1ccc(/C=N/Nc2nc3ccccc3[nH]2)s1,"inconclusive: 28.2 µM [inhibitor, single point]"
4,CN(C)S(=O)(=O)Oc1ccccc1C(=O)Nc1cccc(C(F)(F)F)c1,inactive
5,Cc1oc(-c2cccc(Cl)c2)nc1CSc1nc2ncccc2[nH]1,inactive
6,CCC(CO)Oc1cc(NCc2ccccc2O)c2ncn(C(C)C)c2c1 (stereo not drawn),"inconclusive: 3.16 µM [inhibitor, partial curve, poor fit]"
7,O=C(O)C(CCCCNS(=O)(=O)c1ccc(F)cc1)NS(=O)(=O)c1ccc(F)cc1 (stereo not drawn),"inconclusive: 0.501 µM [inhibitor, full curve, poor fit]"
8,NC(=S)n1[nH]c(-c2ccc([N+](=O)[O-])cc2)c(N=Nc2ccc(Cl)cc2)c1=O,"inconclusive: 3.16 µM [inhibitor, full curve]"
9,O=C(CCc1ccccc1)NNC(=O)CCc1ccccc1,inactive
10,Cc1ccc(OCc2nnc(SCc3cc(=O)[nH]c4ccccc34)n2-c2ccccc2)cc1,"inconclusive: 22.4 µM [inhibitor, single point]"
11,COc1ccc(CCNC(=O)c2c(O)c3c([nH]c2=O)CCCC3)cc1,inactive
12,CC(=O)NC(=C(Cl)Cl)S(=O)(=O)c1ccccc1,"inconclusive: 14.1 µM [inhibitor, single point]"
13,O=C(NCc1ccccc1)Nc1cccn(Cc2cccc(F)c2)c1=O,"inconclusive: 0.794 µM [inhibitor, full curve]"
14,O=C(COc1ccc(Cl)cc1)N1CCN(c2ccc([N+](=O)[O-])c(N3CCOCC3)c2)CC1,inactive
15,Cc1nc2ccc(Nc3nc4cc(S(=O)(=O)N5CCOCC5)ccc4o3)cc2s1,inactive
16,CCOC(=O)N(O)c1ccc(C=Cc2ccccc2)cc1,"inconclusive: 0.891 µM [inhibitor, full curve]"
17,CC(C)(C)OC(=O)N[C@H](/C=C/c1ccccc1)C(=O)OC(C)(C)C,inactive
18,COc1ccc(CCNC(=O)c2cc(-c3ccccc3)c(N3CCOCC3)s2)cc1OC,"inconclusive: 11.2 µM [inhibitor, partial curve, poor fit]"
19,CCOC(=O)NN1C(=O)c2ccccc2NC1c1ccccc1 (stereo not drawn),inactive
20,COc1cc(-n2c(=O)c3ccccc3n(CC(=O)OCc3ccccc3)c2=O)cc(OC)c1OC,"inconclusive: 7.08 µM [inhibitor, partial curve, poor fit]"
21,COc1cccc(C(=O)N/N=C(\C)CC(=O)Nc2ccc(N(C)C)cc2)c1,"inconclusive: 28.2 µM [inhibitor, single point]"
22,CCCC(=O)O[C@]1(C(=O)CCl)[C@@H](C)C[C@H]2[C@@H]3CCC4=CC(=O)C=C[C@]4(C)[C@@]3(F)C(=O)C[C@@]21C,inactive
23,COc1ccccc1NC(=O)CN1C(=O)c2cccc3cccc1c23,inactive

row,SMILES,Potency
1,Cn1c(=O)c2cc(NC(=O)Cc3cccnc3)ccc2n1-c1ccc2ccccc2c1,"inconclusive: 3.98 µM [inhibitor, partial curve]"
2,CCOCCCn1c(SCC(=O)Nc2cccc(OC)c2)nc2ccccc2c1=O,inactive
3,Cc1cccc(NC(=O)Nc2cccc(C)n2)n1,inactive
4,CCC(CO)Nc1ncnc2c1cnn2-c1ccc(C)cc1 (stereo not drawn),inactive
5,O=C1/C(=C\c2cccc(O)c2O)SC(=S)N1Cc1ccccc1,"inconclusive: 10 µM [inhibitor, partial curve, poor fit]"
6,O=C1C(C=Nc2ccc(F)cc2)=C(O)c2ccccc21,inactive
7,Cc1[nH]c2ccccc2c1/C=N/NC(=O)c1cc(-c2ccccc2)n[nH]1,"inconclusive: 28.2 µM [inhibitor, single point]"
8,NS(=O)(=O)c1ccc(N/N=C2/CCCCC2C2CCCCC2)c([N+](=O)[O-])c1 (stereo not drawn),"inconclusive: 22.4 µM [inhibitor, single point]"
9,COc1cc(SC#N)ccc1N=Cc1c(C)[nH]n(-c2ccc(C)cc2)c1=O,"inconclusive: 11.2 µM [inhibitor, partial curve, poor fit]"
10,O=C(Nc1c(-c2ccccc2)nc2ccccn12)c1ccc(Br)cc1,inactive
11,COC(=O)c1ccc(C23CC4(C2)[C@H](CN(C)[C@@H]4c2ccccc2)C3c2ccc(C(F)(F)F)cc2)cc1 (stereo partly drawn),inactive
12,Cn1cccc1/C=C1\CCc2ccccc2C1=O,"inconclusive: 28.2 µM [inhibitor, single point]"
13,C/C(=N\NC(=O)c1ccc(-c2ccccc2)cc1)c1cccc(N)c1,inactive
14,COc1cc(/C=C2\SC(=S)N(CCC(=O)Nc3ccccc3)C2=O)cc(OC)c1OC,"inconclusive: 11.2 µM [inhibitor, single point]"
15,O=C(CCN1CCc2ccccc2C(O)(c2ccccc2)C1)c1ccc2c(c1)OCCO2 (stereo not drawn),"inconclusive: 31.6 µM [inhibitor, partial curve, poor fit]"
16,Cc1ccc(C(C)C)c(OCC(=O)Nc2ccccc2N2CCN(C)CC2)c1,"inconclusive: 28.2 µM [inhibitor, single point]"
17,CCc1ccc(-c2csc(NC(=O)Oc3ccccc3)n2)cc1,inactive
18,Cn1c(=O)n(C)c2cc(NC(=O)CCl)ccc21,"inconclusive: 15.8 µM [inhibitor, partial curve, poor fit]"
19,Cc1ccc(C)c(S(=O)(=O)N2CCN(C(=O)CCC(=O)NCc3ccc(Cl)cc3Cl)CC2)c1,"inconclusive: 28.2 µM [inhibitor, single point]"
20,CCOc1ccc(/C=C2\SC(=S)N(NC(=O)c3ccncc3)C2=O)cc1OC,"inconclusive: 28.2 µM [inhibitor, single point]"
21,O=C1/C(=C/c2cccnc2)SC(=S)N1c1ccc(O)cc1,"inconclusive: 10 µM [inhibitor, single point]"
22,COc1ccc(CCn2c(=N)c(C(=O)NCC3CCCO3)cc3c(=O)n4ccccc4nc32)cc1 (stereo not drawn),"inconclusive: 8.91 µM [inhibitor, partial curve, poor fit]"
